Screen size: about 48,000 compounds; about 550 (1.1%) were called active. Inconclusive results (about 4%) are left out. Cut-off read from the data, not from the text of the source: active = potency below about 15 µM; inconclusive = mostly about 16 µM to 33 µM; inactive = weaker than that. Some of the results follow.
Potency is the fitted concentration of half-maximal effect.

Chain of UniProt P04062 (P04062 whole entry, looked up): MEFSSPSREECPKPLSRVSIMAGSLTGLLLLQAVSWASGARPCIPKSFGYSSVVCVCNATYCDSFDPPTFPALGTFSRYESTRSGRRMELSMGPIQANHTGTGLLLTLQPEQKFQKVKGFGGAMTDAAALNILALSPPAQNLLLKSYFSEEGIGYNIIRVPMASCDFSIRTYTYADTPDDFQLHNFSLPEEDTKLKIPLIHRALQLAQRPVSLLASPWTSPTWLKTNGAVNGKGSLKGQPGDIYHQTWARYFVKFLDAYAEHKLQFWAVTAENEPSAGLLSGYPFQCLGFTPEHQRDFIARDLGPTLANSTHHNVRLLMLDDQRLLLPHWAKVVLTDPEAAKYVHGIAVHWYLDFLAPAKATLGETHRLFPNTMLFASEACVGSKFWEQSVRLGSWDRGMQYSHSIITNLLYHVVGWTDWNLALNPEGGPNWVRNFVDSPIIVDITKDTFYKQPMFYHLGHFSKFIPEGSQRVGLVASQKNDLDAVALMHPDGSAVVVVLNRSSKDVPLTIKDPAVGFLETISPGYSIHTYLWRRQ

The test concerns the target Lysosomal acid glucosylceramidase (Homo sapiens) (UniProt P04062). The test is described as follows: Glucocerebrosidase.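 Note: the screen sought inhibitors.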 The following applies: purified enzyme, resorufin glucoside fluorescence (screen aimed at inhibitors), 20 min. The gist of the method:
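Wild-type enzyme at 0.2 nM final in 50mM citric acid/KH2PO4, 10mM sodium taurocholate, 0.01% tween-20, pH 5.9, with resorufin beta-D-glucopyranoside at 30 uM final. Compounds titrated, 20 min at RT, red fluorescence read; AC50 from titration.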
For the compound `CC(=O)N(CC1CCCO1)c1nnc(-c2cnccn2)s1` (stereo not given), the Potency was inactive: > 76.9 µM.
As for `CCn1c(SCC(=O)c2ccc(Cl)cc2)nnc1-c1ccoc1C`, the Potency is inactive: > 76.9 µM.
As for `COc1ccc(NC(=O)NS(=O)(=O)c2ccc(C)cc2)c(OC)c1`, the figure is inactive: > 76.9 µM; as for `Cc1ccc(C2=NCCNC2=O)c(C)c1`, inactive: > 76.9 µM.
In the case of `CCCC(=O)Nc1nnc(-c2cccc(OCC)c2)s1`, the Potency was inactive: > 76.9 µM.
`CCCN(C(=O)c1cccs1)c1nnc(-c2ccncc2)s1`: the Potency was inactive: > 76.9 µM.
Under `CC(C)Cc1nc(N2CCC(C(N)=O)CC2)c2nnn(Cc3ccccc3)c2n1` stands inactive: > 76.9 µM.
Under `CCOC(=O)N1CCC(n2c(SCC(=O)NCc3ccco3)nc3ccsc3c2=O)CC1` stands inactive: > 76.9 µM; under `Cc1ccc(C(C)n2cc(C(=O)NCCN3CCN(C)CC3)nn2)cc1` (stereo not given), inactive: > 76.9 µM; under `Cc1cccc(NC(=O)Cn2c(=O)n3nc(CCn4nc(C)cc4C)nc3c3ccccc32)c1`, inactive: > 76.9 µM.
Turning to `O=C1C2CCCN2C(c2ccccc2F)N1c1ccc(Cl)cc1` (stereo not given), the Potency is inactive: > 76.9 µM.
As for `Cc1ccc(C)c(N(CC(=O)NC2CCCC2)C(=O)CCCC(=O)Nc2ccccn2)c1`, the figure is inactive: > 76.9 µM.
Under `Cc1ccc(NC(=O)CCn2c(=O)oc3ccccc32)cc1` stands inactive: > 76.9 µM.
Under `O=c1c2ccccc2nnn1CSc1nnc2ccccn12` stands inactive: > 76.9 µM.
`CCC(=O)N(Cc1cc2c(C)ccc(C)c2[nH]c1=O)C1CCCCC1`: the Potency is inactive: > 76.9 µM.
As for `COc1cccc(OCC(O)CN2CCC(Cc3ccccc3)CC2)c1` (stereo not given), the figure is inactive: > 76.9 µM; as for `CN(Cc1cnn(C)c1)C(=O)c1cc2ccccc2oc1=O`, inactive: > 76.9 µM.
Under `COc1ccc(-c2nc3nc(C)cc(C)n3n2)cc1` stands inactive: > 76.9 µM; under `Cc1[nH]c2ccccc2c1-c1nc2ccccc2[nH]1`, inactive: > 76.9 µM; under `O=C(NC1CCCCC1)NC1CCN(S(=O)(=O)c2ccc3c(c2)OCCO3)CC1`, inactive: > 76.9 µM.
With `COC(=O)c1ccc(NC(=O)COc2ccc(S(=O)(=O)NC(C)C)cc2)cc1`, the Potency was inactive: > 76.9 µM.
Take `CCOCCCNC(=O)CN(Cc1ccc(Cl)cc1)S(C)(=O)=O`: the Potency is inactive: > 76.9 µM.
With `O=S(=O)(c1ccc(F)c2ccccc12)N1CCCCC1`, the Potency is inactive: > 76.9 µM.
Under `COc1ccc(CCNC(=O)C2CCN(c3nn4c(=O)cc(C)nc4s3)CC2)cc1OC` stands inactive: > 76.9 µM.
As for `Cc1ccc(-c2nnc(SCC(=O)O)n2N)cc1`, the figure is inactive: > 76.9 µM; as for `CC(C)Sc1nc2c(c(=O)n(C)c(=O)n2C)n1Cc1ccc(Cl)cc1`, inactive: > 76.9 µM; as for `Cc1cccc(NC(=O)C2CCCN2C(=O)OCC(C)C)c1` (stereo not given), inactive: > 76.9 µM.
For `Cc1ccc2oc(-c3ccco3)nc2c1`, the Potency is inactive: > 76.9 µM.
Regarding `Cc1cc(=O)[nH]c(/N=C(\N)Nc2cccc3ccccc23)n1`, the Potency was inactive: > 76.9 µM.
As for `CCOCCOC(=O)C1=C(C)N(C)C(=O)NC1c1cc(Cl)c(O)c(OCC)c1` (stereo not given), the figure is inactive: > 76.9 µM; as for `CC12CCC(C(=O)N3CCN(c4ccccc4)CC3)(CC1=O)C2(C)C` (stereo not given), inactive: > 76.9 µM; as for `COc1ncnc2c1NC(=O)CS2`, inactive: > 76.9 µM.
As for `CCOc1ccccc1NC(=O)Cc1ccccc1OC`, the figure is inactive: > 76.9 µM.
As for `N#CC1=C(N)OC2=C(C(=O)CCC2)C12CCC1(CC2)OCCO1`, the figure is inactive: > 76.9 µM.
`O=C(Nn1cnnc1)c1csc2ccccc12`: the Potency is inactive: > 76.9 µM.
As for `Cc1ccc(N2CCN(S(=O)(=O)N(C)C)CC2)cc1Cl`, the figure is inactive: > 76.9 µM; as for `O=C(Nc1ccccn1)C1CCN(S(=O)(=O)c2cccs2)CC1`, inactive: > 76.9 µM.
Under `COc1ccccc1NC(=O)COc1cccc(-n2cnnn2)c1` stands “inactive”; under `Cc1c(Cl)cccc1NC(=O)CC(C(=O)O)C1CCCO1` (stereo not given), inactive: > 76.9 µM.
Regarding `O=C(CSc1nc2ccsc2c(=O)n1-c1ccccc1)N1CCCC1`, the Potency was inactive: > 76.9 µM.
On to `COc1ccccc1N(CC(=O)Nc1ccc(F)c(F)c1)S(C)(=O)=O`, for which the Potency is inactive: > 76.9 µM.
In the case of `CCN(CC)c1ccc(-c2nn3c(-c4n[nH]c5c4CCC5)nnc3s2)cc1`, the Potency was inactive: > 76.9 µM.
Regarding `Nc1c(C(=O)N2CCCCC2)sc(=S)n1-c1ccccc1`, the Potency was inactive: > 76.9 µM.
As for `O=C(CSc1nnc(Cc2cccs2)n1C1CCCCC1)N1CCN(C(=O)c2ccco2)CC1`, the figure is inactive: > 76.9 µM; as for `O=C(CN1C(=O)c2ccccc2C1=O)N1CCN(c2nnc(-c3ccccc3)c3ccccc23)CC1`, inactive: > 76.9 µM; as for `Cn1nnc2cc(C(=O)NC3CCCCC3)ccc21`, inactive: > 76.9 µM.
Under `Cc1ccc(Cn2nc(C)c(NC(=O)c3cc(-c4ccc5c(c4)OCO5)on3)c2C)cc1` stands inactive: > 76.9 µM.
As for `Cc1ccccc1NC(=O)c1cc(S(=O)(=O)N2CCOCC2)ccc1F`, the figure is inactive: > 76.9 µM; as for `C=CCN(C(=O)CNS(=O)(=O)c1ccccc1)C(C(=O)NCCOC)c1ccncc1` (stereo not given), inactive: > 76.9 µM.
Consider `O=C(CSc1nnc(-c2cccnc2)n1-c1ccccc1)NCc1ccc2c(c1)OCO2`, for which the Potency is inactive: > 76.9 µM.
Under `Nc1nc(SCC(=O)c2ccc(Oc3ccccc3)cc2)n[nH]1` stands inactive: > 76.9 µM.
As for `CCN1CCN(Cc2cc(=O)oc3cc4c(cc23)CCC4)CC1`, the entry is “inactive”; as for `Cc1cc(C)n(-c2nc3c(c(=O)n(C)c(=O)n3C)n2Cc2cccc(Br)c2)n1`, inactive: > 76.9 µM.
In the case of `Cc1ccc(N(CC(=O)NCc2ccco2)C(=O)CCC(=O)Nc2ccccn2)cc1C`, the Potency was inactive: > 76.9 µM.
Under `COc1ccc(C(=O)COC(=O)CCN=C2NS(=O)(=O)c3ccccc32)cc1OC` stands inactive: > 76.9 µM; under `COc1ccc(N2CCN(C(=O)c3ccc(S(=O)(=O)N4CCOCC4)cc3)CC2)cc1`, inactive: > 76.9 µM; under `CC1=C(C#N)C(=O)NC(C)(C)C1`, inactive: > 76.9 µM.
As for `CS(=O)(=O)Nc1ccc(C(=O)Nc2ccccc2C(=O)N2CCCC2)cc1`, the figure is inactive: > 76.9 µM; as for `CSc1nnc(C2CCCN2)n1C` (stereo not given), inactive: > 76.9 µM; as for `Cc1nc2ccccc2n1CC(=O)OCC(=O)Nc1ccc2c(c1)OCCO2`, inactive: > 76.9 µM.
On to `O=C(COC(=O)CCC(=O)c1cccs1)Nc1ccc(S(=O)(=O)N2CCOCC2)cc1`, for which the Potency was inactive: > 76.9 µM.
Under `O=C(NCCCN1CCCC1=O)c1cccc(N2CCCC2=O)c1` stands inactive: > 76.9 µM; under `CCC(CC)C(=O)NCc1ccccc1Cl`, inactive: > 76.9 µM.
As for `CCOc1ccc(NC(=O)CNC(=O)c2ccc(OC)c(OC)c2)cc1`, the figure is inactive: > 76.9 µM.
On to `CCCCC1(C)NC(=O)N(CC(=O)Nc2ccc(S(=O)(=O)N3CCOCC3)cc2)C1=O` (stereo not given), for which the Potency was inactive: > 76.9 µM.
Under `Cc1cc(C)n(Cc2ccc(F)cc2)c(=O)c1C#N` stands inactive: > 76.9 µM; under `Cc1ccc(N2CC(C(=O)Nc3nnc(C)s3)CC2=O)cc1` (stereo not given), inactive: > 76.9 µM.
As for `Cc1ccccc1Cn1nc(C)c(NC(=O)c2noc3c2CC(C(C)(C)C)CC3)c1C` (stereo not given), the figure is inactive: > 76.9 µM.
Under `COc1cccc(CC(NC(C)=O)C(=O)NC2CCN(c3nc(C)cc(C)c3C#N)CC2)c1` (stereo not given) stands inactive: > 76.9 µM.
On to `CC(C)n1nnnc1C(c1ccc(F)cc1)N1CCN(C2CCCC2)CC1` (stereo not given), for which the Potency was inactive: > 76.9 µM.
As for `CCn1c(=O)c(-[n+]2ccccc2)c(O)c2ccccc21`, the figure is inactive: > 76.9 µM.
On to `COC(=O)c1ccc2c(=O)n(Cc3ccc4c(c3)OCO4)c(SCC(=O)N3CCCC3)nc2c1`, for which the Potency is inactive: > 76.9 µM.
As for `CCOC(=O)Nc1oc2ccccc2c(=O)c1CN1CCOCC1`, the figure is inactive: > 76.9 µM; as for `COc1ccccc1NC(=O)c1nnn(CC(=O)Nc2cccc(SC)c2)c1N`, inactive: > 76.9 µM.
Under `COc1cc(NC(=O)CN2c3cccc4cccc(c34)S2(=O)=O)cc(OC)c1OC` stands inactive: > 76.9 µM; under `Cc1nc2cc(-c3ccc(F)cc3)nn2c(N2CCOCC2)c1C`, inactive: > 76.9 µM.
As for `CCOC(=O)N1CCC(NC(=O)C(NS(=O)(=O)c2ccc3c(c2)CCN3C(C)=O)C(C)C)CC1` (stereo not given), the figure is inactive: > 76.9 µM.
Take `C=CCn1c(-c2cccs2)nc2ccccc21`: the Potency was inactive: > 76.9 µM.
For `COc1ccc(-c2cc3ccccc3n2CC(O)CNC(CO)(CO)CO)cc1` (stereo not given), the Potency was active: 14.2 µM.
Consider `Cc1ccc2cc(CN(C(=O)c3cccnc3)C(C)C)c(=O)[nH]c2c1`, for which the Potency was inactive: > 76.9 µM.
`CCCCNC(=O)c1ccc(NS(=O)(=O)c2ccccc2)cc1`: the Potency is inactive: > 76.9 µM.
Consider `CCOC(=O)Cn1ncc(-c2ccccc2)c1N`, for which the Potency was inactive: > 76.9 µM.
As for `Cc1ccc2nsnc2c1NS(=O)(=O)c1c(C)ccc2nsnc12`, the figure is inactive: > 76.9 µM.
As for `COc1ccc(CCNC(=O)CN(C2CCCCC2)S(C)(=O)=O)cc1`, the figure is inactive: > 76.9 µM; as for `Cc1cc(NC(=O)C23CCC(C)(C(=O)O2)C3(C)C)no1` (stereo not given), inactive: > 76.9 µM.
As for `CCn1c(COc2ccc(C)cc2)nnc1SCC(=O)Nc1cc(OC)ccc1OC`, the figure is inactive: > 76.9 µM; as for `O=C(Nc1ccc(N2CCOCC2)cc1)C1CC1`, inactive: > 76.9 µM.
`CCOc1ccccc1C1C(C#N)=C(N)Oc2cc(C)n(Cc3ccccn3)c(=O)c21` (stereo not given): the Potency is inactive: > 76.9 µM.
As for `Cc1ccc(-n2c(SCC(=O)N3CCCC3)nc3c(c2=O)SCC3)cc1`, the figure is inactive: > 76.9 µM; as for `COc1cc(C2NC(=O)NC(c3ccccc3)=C2C(C)=O)ccc1OCC(=O)O` (stereo not given), inactive: > 76.9 µM.

The record behind these values is PubChem BioAssay AID360 (National Center for Advancing Translational Sciences (NCATS), 2006).
